Data published in patent publication US8633031B2, “Expression quantification using mass spectrometry” (DH Technologies Development Pte. Ltd., priority 2004, dated 2014).

Columns and labels:
[1] = system: Cyp4a10/Cyp4a14; test: Example 1: MRM quantitation of P450 expression in liver microsomes, phenobarbital induced vs control; conditions: ratio of phenobarbital induced (IND) to control (CT) mouse liver microsomes, average of 4 experiments
[2] = system: Cyp2d22/Cyp2d26; test: as above; conditions: ratio of phenobarbital induced (IND) to control (CT) mouse liver microsomes, average of 4 experiments
[3] = system: Cyp2c29/Cyp2c37; test: as above
[4] = system: Cyp2c29/Cyp2c37; test: Example 2: MRM of combined light/heavy ICAT labeled control and phenobarbital induced liver microsomes; conditions: Cyp2c29/Cyp2c37, based on MRM peak areas, FIG. 6

`CCC1(c2ccccc2)C(=O)NC(=O)NC1=O` [phenobarbital] was tested, and the IND/CT [1] was 11.61, the IND/CT [2] was 10.90 and the “increase in expression upon drug treatment over control” value ([3]; Cyp2c29/Cyp2c37, Example 1, mouse liver microsomes) was “about 3 fold”. For the same molecule, the Change ([3]; Cyp2c29/Cyp2c37, qualitative change in IND samples relative to CT, mouse liver microsomes) was “up” and the “increase in expression of the induced sample over the control sample” value [4] was ~3 fold.
